Data: PubChem BioAssay AID686978 (National Center for Advancing Translational Sciences (NCATS), 2013)
“And” between values parts separate entries of the source, which are not always exact repeats. Identical values can stand only once. The campaign covered roughly 420,000 compounds. About 64,000 (15%) were called active. The inconclusive results got no clear call from the source; some entries with a clear call stand among them for comparison. Calls follow the shape of the dose curve; as a rule, active = well fitted inhibition curve with a large enough effect; inconclusive = small, poorly fitted or top-dose-only effect; inactive = flat fitted curve, though single readings scatter. Potencies beside an inconclusive call are fits to weak or partial responses and may not hold up.

assay: qHTS for Inhibitors of human tyrosyl-DNA phosphodiesterase 1 (TDP1): qHTS in cells in absence of CPT; conditions: DT40 Tdp1-/- hTDP1 cells, no CPT, ATP luminescence, 48 h; activity change, negative = growth inhibition: at 46.2 µM (top of the series); also: nearly all actives have a fitted effect of over 55% in size
In short: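 Readout: luminescence from CellTiter-Glo after 30 min in the dark at RT. Cells: DT40 Tdp1-/- with stable hTDP1, 400/well. Exposure: compounds alone, ≥48 hr, 37 °C.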
% is scaled to controls: 0 for no effect and ±100 for the full control effect; potency is read from the fitted curve at half-maximal effect; tags tell the direction and shape of the fitted curve.

Compound	Potency	activity change, negative = growth inhibition
COc1ccc(C(=O)NC(=S)Nc2cccnc2)cc1Cl	inconclusive: 0.82 µM [inhibitor, single point]	–
COc1ccc2nc(NC(=O)C3CCN(S(=O)(=O)c4cccc5nsnc45)CC3)sc2c1	inconclusive: 29.1 µM [inhibitor, single point]	–
C=CCOc1c(Br)cc(CNCCCN2CCOCC2)cc1OC	inconclusive: 18.4 µM [inhibitor, single point]	–
O=C1c2cc(Cl)ccc2-c2c(O)cc(Cl)cc21	active: 14.6 µM	–
c1ccc(-c2c[nH]c3[n+]2CCCCC3)cc1	active: 9.2 µM	–
O=C(NCc1cccnc1)c1cc(-c2ccc(Cl)cc2)oc1C(F)(F)F	inconclusive: 29.1 µM [inhibitor, single point]	–
O=C(O)c1nn(CC(=O)N(C2CCCCC2)C2CCCCC2)c(=O)c2ccccc12	–	inactive: -0.998%
CCCCn1c(N)c(N(CC(C)C)C(=O)c2ccc(-c3ccc(Cl)cc3)o2)c(=O)[nH]c1=O	inconclusive: 23.1 µM [inhibitor, single point]	–
COc1ccc(NC(=S)NCCSc2ccc(C)cc2)c(OC)c1	inconclusive: 29.1 µM [inhibitor, single point]	–
COc1cccc(OC(=O)CSc2nnc(-c3cccs3)o2)c1	–	inactive: 3.69%
COc1ccc(C2=NN(C(N)=S)C(c3ccco3)C2)cc1 (stereo not drawn)	–	inactive: -22.6%
CC(C)C1N=C2c3ccccc3N=C(SCc3cc(=O)n4cc(Cl)ccc4n3)N2C1=O (stereo not drawn)	active: 14.6 µM	–
COCCN(C(=O)CSc1nnc(-c2ccc(C)cc2)n1N)c1c(N)n(Cc2ccccc2)c(=O)[nH]c1=O	–	inactive: -3.72%
C[C@H](CO)NC(=O)[C@@H]1C[C@H]1[C@@H](NP(=O)(c1ccccc1)c1ccccc1)c1ccccc1	inconclusive: 9.2 µM [inhibitor, partial curve, poor fit]	–
Cc1[nH]cnc1CN1CCc2c(c3ccccc3n2C)C1=O	inconclusive: 29.9 µM [inhibitor, single point]	–
COc1cccc(C=C(C(C)=O)C(=O)c2ccccc2)c1	active: 14.6 µM	–
COC(=O)c1ccc(Nc2nc(-c3ccccc3Cl)nc3ccccc23)cc1	active: 16.4 µM	–
CCOC(=O)[C@H]1[C@H]2COc3ccc(C)cc3[C@@H]2N2C(=O)c3cc(F)ccc3NC(=O)[C@@]12C	inconclusive: 25.9 µM [inhibitor, single point]	–
OC(COC(c1ccccc1)c1ccccc1)CN1CCOCC1 (stereo not drawn)	inconclusive: 18.4 µM [inhibitor, single point]	–
O=C(COC(=O)C1CC2CCCC(C1)C2=O)NC1CCCCC1 (stereo not drawn)	–	inactive: 1.43%
CC1(C)OC[C@@H](COC(=O)CCc2ccc(OC[C@@H](O)CNCCNC(=O)N3CCOCC3)cc2)O1	inactive	–
O=C(CCc1nnc(Cc2ccc(-c3ccccc3)cc2)o1)NCC1CC1	–	inactive: -26.9%
Cc1ccc(-c2nc3ccccc3c(C(=O)NCc3cccs3)c2C)cc1	inconclusive: 18.4 µM [inhibitor, partial curve]	–
COc1ccc(COC(=O)CCc2cc(OC)c(OC)c(OC)c2)cc1F	–	inactive: -0.441%

Compound	Potency	activity change, negative = growth inhibition
CC(C)(C)NC(=O)Cn1cnc([N+](=O)[O-])n1	–	inactive: -7.99%
CC(/C=C/c1ccccc1)=N\NC(=O)c1cc(C)[nH]n1	–	inactive: -12.3%
Cc1cccc(N2CCN(C(=O)c3cccc(N4C(=O)C5C6C=CC(C6)C5C4=O)c3)CC2C)c1 (stereo not drawn)	active: 20.6 µM	–
CC1(C)CC(=O)C=C(C(=O)NC2CCCc3c2cnn3-c2cc(F)cc(F)c2)O1 (stereo not drawn)	inconclusive: 14.6 µM [inhibitor, single point]	–
COc1ccc(OC)c2c1sc(=NC(=O)C(C)(C)C)n2C	inconclusive: 29.1 µM [inhibitor, single point]	–
COc1cccc(CNC(=O)Cn2nc(-c3ccc(C)cc3)ccc2=O)c1	–	inactive: -13.9%
COc1cccc(NC(=O)CN(C)C(=O)c2c(C)nn(CC(C)C)c2Cl)c1	–	inactive: 12.2%
C=CCc1cccc2cc(C(=O)Nc3ccccc3C(=O)O)c(=O)oc12	inconclusive: 10.3 µM [inhibitor, partial curve]	–
Cc1ccc(N(C)C(CNS(=O)(=O)c2ccccc2)c2ccccc2)cc1 (stereo not drawn)	inconclusive: 29.1 µM [inhibitor, single point]	–
O=C(c1ccccc1-n1cccn1)N1CCc2c([nH]c3ccccc23)C1c1ccccn1 (stereo not drawn)	active: 10.3 µM	–
COc1ccccc1NC(=O)CSc1ccc(-c2ccccn2)nn1	inconclusive: 29.1 µM [inhibitor, single point] and inconclusive: 18.4 µM [inhibitor, single point]	–
CCN(CC)C(=O)[C@H]1C[C@H](CC(=O)NCc2ccco2)C(=O)N2CCc3c([nH]c4cc(-c5ccco5)ccc34)[C@]12C	inconclusive: 18.4 µM [inhibitor, single point]	–
CCN(CC)CC(=O)N1c2ccccc2Sc2ccccc21	–	inactive: -20%
O=C(Nc1ccccc1OC(F)(F)F)c1ccc([N+](=O)[O-])cc1	inconclusive: 8.2 µM [inhibitor, partial curve, poor fit]	–
O=C(O)c1ccc(/C=N/NC(=S)NCc2ccccc2)cc1	–	inactive: 3.93%
CCOC(=O)c1sc(NC(=O)c2cc3n(n2)C(C(F)(F)F)CC(c2ccccc2)N3)c(C(=O)OCC)c1C (stereo not drawn)	–	inactive: -5.36%
Cc1onc(-c2c(Cl)cccc2Cl)c1C(=O)c1ccccc1	active: 20.6 µM	–
CCC1CCCCN1Cc1c(O)ccc2c(=O)c(-c3ccccc3)coc12 (stereo not drawn)	active: 10.3 µM	–
Cc1cc(Oc2ccc(Cl)cc2)nc(SCC(=O)c2ccccc2)n1	active: 23.1 µM	–
COCCNC(=O)Nc1ccc2nc(-c3cccs3)c(-c3cccs3)nc2c1	inconclusive: 23.1 µM [inhibitor, single point]	–
CC(OC(=O)CNC(=O)c1ccc(F)cc1)C(=O)Nc1ccc(S(=O)(=O)N2CCOCC2)cc1 (stereo not drawn)	–	inactive: 3.27%
COc1ccc(N(C)C(=O)c2ccc3nc(-c4ccccc4)c(-c4ccccc4)nc3c2)cc1	active: 18.4 µM	–
COC(=O)Cn1cnc2scc(-c3ccc(C)cc3)c2c1=O	–	inactive: -1.92%
Cc1ccc(NC(=O)Cn2cc(C(=O)c3ccco3)c3ccccc32)cc1C	active: 18.4 µM	–
